According to publication PMC4336329 (PLoS ONE, 2015):
The whole screen tested about 310,000 compounds, of which about 14,000 (4.5%) showed an effect of 50% or more. The effect is printed as a negative number. The list shows a part of the results.

target: human ether-à-go-go-related gene (hERG) potassium channel (human, UniProt Q12809); assay: primary screen, population patch clamp on CHO cells stably expressing hERG
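Note: peak tail current of the secondary pulse compared with the same well before compound.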

Sequence of human ether-à-go-go-related gene (hERG) potassium channel (Q12809 whole entry, looked up): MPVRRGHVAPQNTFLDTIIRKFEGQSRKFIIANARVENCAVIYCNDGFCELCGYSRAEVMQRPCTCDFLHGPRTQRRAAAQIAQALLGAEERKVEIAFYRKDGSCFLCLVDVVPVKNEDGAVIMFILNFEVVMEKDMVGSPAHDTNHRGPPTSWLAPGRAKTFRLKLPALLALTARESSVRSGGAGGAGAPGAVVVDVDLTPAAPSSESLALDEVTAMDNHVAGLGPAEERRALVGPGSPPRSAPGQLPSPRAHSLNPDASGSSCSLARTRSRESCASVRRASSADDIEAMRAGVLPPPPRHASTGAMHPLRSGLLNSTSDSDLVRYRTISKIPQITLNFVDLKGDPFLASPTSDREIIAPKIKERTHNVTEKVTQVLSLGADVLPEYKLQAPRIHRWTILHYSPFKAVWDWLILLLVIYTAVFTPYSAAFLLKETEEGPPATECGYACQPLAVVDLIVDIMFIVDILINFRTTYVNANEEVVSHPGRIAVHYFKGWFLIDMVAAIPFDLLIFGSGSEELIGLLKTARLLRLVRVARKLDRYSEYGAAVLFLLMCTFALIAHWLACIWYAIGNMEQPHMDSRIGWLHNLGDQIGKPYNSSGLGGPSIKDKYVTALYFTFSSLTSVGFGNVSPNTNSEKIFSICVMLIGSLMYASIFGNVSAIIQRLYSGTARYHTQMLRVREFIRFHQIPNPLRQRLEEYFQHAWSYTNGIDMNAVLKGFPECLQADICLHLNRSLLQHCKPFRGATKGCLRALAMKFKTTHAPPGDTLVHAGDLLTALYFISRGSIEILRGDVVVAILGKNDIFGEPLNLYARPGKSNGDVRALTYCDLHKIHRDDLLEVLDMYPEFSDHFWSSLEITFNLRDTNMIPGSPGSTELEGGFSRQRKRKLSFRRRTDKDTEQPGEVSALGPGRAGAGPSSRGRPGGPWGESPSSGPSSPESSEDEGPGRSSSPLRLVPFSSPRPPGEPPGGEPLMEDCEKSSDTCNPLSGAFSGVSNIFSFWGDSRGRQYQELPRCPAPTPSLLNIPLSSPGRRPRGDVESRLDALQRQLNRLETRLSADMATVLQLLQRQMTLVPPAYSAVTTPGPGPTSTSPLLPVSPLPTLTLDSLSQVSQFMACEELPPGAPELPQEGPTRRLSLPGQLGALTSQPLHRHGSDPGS

Q: For `COc1cc(C(CCN2CCCC2)c2c(OC)cc(OC)c3ccc(=O)oc23)cc(OC)c1OC` (centres unmarked), which “hERG current change (%, negative = inhibition) at 10uM” value is on record?
A: -69.2%

Q: With `Cc1cc(N)n(-c2nc(-c3cccnc3)nc3ccccc23)n1` as the compound, how does the “hERG current change (%, negative = inhibition) at 10uM” value read?
A: -27.4%

Q: How did the “hERG current change (%, negative = inhibition) at 10uM” value turn out when `COc1ccc2cc(S(=O)(=O)NC3CC(C)(C)NC(C)(C)C3)ccc2c1` was run?
A: -3.04%

Q: For `CS(=O)(=O)N(CC(=O)Nc1cccnc1)c1ccc2c(c1)OCCO2`, which “hERG current change (%, negative = inhibition) at 10uM” value is on record?
A: 14.9%

Q: With `O=C(Cc1ccc(Br)cc1)Nc1ccc2[nH]ncc2c1` as the compound, how does the “hERG current change (%, negative = inhibition) at 10uM” value read?
A: 24.8%

Q: `Nc1c(NCc2ccccc2F)c(=O)[nH]c(=O)n1Cc1ccccc1` was tested. Which “hERG current change (%, negative = inhibition) at 10uM” value did it give?
A: -2.29%

Q: For `COc1ccc(OCCCC(=O)Nc2ccc3c(c2)OCO3)cc1`, which “hERG current change (%, negative = inhibition) at 10uM” value is on record?
A: -3.37%

Q: Which “hERG current change (%, negative = inhibition) at 10uM” value does the source give for `CC(C)Cn1c(N)c(C(=O)COC(=O)c2cc(C3CC3)nc3ccccc23)c(=O)n(C)c1=O` here?
A: -8.65%

Q: With `COc1ccc(/C(C)=N/NC(=O)Cc2ccc(Cl)cc2)cc1` as the compound, how does the “hERG current change (%, negative = inhibition) at 10uM” value read?
A: 14.6%

Q: With `CC(C)(CNc1ccc(S(=O)(=O)C(F)(F)F)cc1[N+](=O)[O-])N1CCOCC1` as the compound, how does the “hERG current change (%, negative = inhibition) at 10uM” value read?
A: -7.34%

Q: With `O=S(=O)(Nc1cccc(Br)c1)c1cccc2nsnc12` as the compound, how does the “hERG current change (%, negative = inhibition) at 10uM” value read?
A: -3.25%

Q: `CCN(Cc1ccccc1)C(=O)c1nn(-c2ccc(OC)cc2)c(=O)c2c1c1ccccc1n2C` was tested. Which “hERG current change (%, negative = inhibition) at 10uM” value did it give?
A: -5.28%

Q: `CCn1c2ccccc2c2cc(NC(=O)CSc3nnc(-c4cccc(Cl)c4)o3)ccc21` was tested. Which “hERG current change (%, negative = inhibition) at 10uM” value did it give?
A: 1.03%

Q: How did the “hERG current change (%, negative = inhibition) at 10uM” value turn out when `CC(C)(CNC(=O)c1sc2cc(F)ccc2c1Cl)N1CCOCC1` was run?
A: -33.2%

Q: How did the “hERG current change (%, negative = inhibition) at 10uM” value turn out when `N/C(=N\OC(=O)CCCCCN1C(=O)c2ccccc2C1=O)c1ccccn1` was run?
A: 4.97%

Q: With `CCCCn1c(O)c(/C=C/C=C/C=Nc2ccccc2)sc1=S` as the compound, how does the “hERG current change (%, negative = inhibition) at 10uM” value read?
A: 31%

Q: How did the “hERG current change (%, negative = inhibition) at 10uM” value turn out when `COC(=O)Cc1nnc(NC(=O)c2ccccc2)s1` was run?
A: 6.83%

Q: How did the “hERG current change (%, negative = inhibition) at 10uM” value turn out when `CC1(C)CC(N2CCOCC2)=CC(=[N+]2CCOCC2)C1.[I-]` was run?
A: 8.01%

Q: For `CC(C)(C)[C@H]1CCC(=O)N([C@H](CC#N)Cc2ccccc2)CC1`, which “hERG current change (%, negative = inhibition) at 10uM” value is on record?
A: -13.5%

Q: For `Cc1ccc(C(=O)NC2CC(C)(C)NC(C)(C)C2)cc1`, which “hERG current change (%, negative = inhibition) at 10uM” value is on record?
A: 0.0221%

Q: Which “hERG current change (%, negative = inhibition) at 10uM” value does the source give for `Cc1ccccc1N1C(=O)CC(N(O)c2ccccc2)C1=O` (centres unmarked) here?
A: 7.35%

Q: With `NS(=O)(=O)c1ccc(NS(=O)(=O)c2ccc(Br)cc2)cc1` as the compound, how does the “hERG current change (%, negative = inhibition) at 10uM” value read?
A: 15.4%

Q: How did the “hERG current change (%, negative = inhibition) at 10uM” value turn out when `Cc1ccc(S(=O)(=O)N2CCN(C(=O)COC(=O)c3oc4ccccc4c3C)CC2)cc1` was run?
A: 13.2%

Q: `O=C(Nc1cccc([N+](=O)[O-])c1)C1C2/C=C\CCCCC21` (centres unmarked) was tested. Which “hERG current change (%, negative = inhibition) at 10uM” value did it give?
A: 20%

Q: Which “hERG current change (%, negative = inhibition) at 10uM” value does the source give for `Cc1cc(C)c(S(=O)(=O)NCc2cccs2)cc1C` here?
A: -12.6%

Q: `COC(=O)C(C)Oc1ccc(-c2nccc(-c3cccs3)n2)cc1` (centres unmarked) was tested. Which “hERG current change (%, negative = inhibition) at 10uM” value did it give?
A: 2.25%

Q: `COc1ccccc1NC(=O)CSc1nnnn1-c1ccc(F)cc1` was tested. Which “hERG current change (%, negative = inhibition) at 10uM” value did it give?
A: -12.3%

Q: With `CC1CCCCC1NC(=O)CCn1c(=O)oc2ccccc21` (centres unmarked) as the compound, how does the “hERG current change (%, negative = inhibition) at 10uM” value read?
A: 5.54%

Q: With `O=S1(=O)CCN2C=C(Br)C=C(Br)C2=N1` as the compound, how does the “hERG current change (%, negative = inhibition) at 10uM” value read?
A: 1.1%

Q: `Cc1nc2sccn2c(=O)c1S(=O)(=O)N1CCN(c2ccccc2)CC1` was tested. Which “hERG current change (%, negative = inhibition) at 10uM” value did it give?
A: -11.2%

Q: With `OCCC1CN(Cc2cccn2-c2ncccn2)CCN1C1CCCC1` (centres unmarked) as the compound, how does the “hERG current change (%, negative = inhibition) at 10uM” value read?
A: -6.11%

Q: How did the “hERG current change (%, negative = inhibition) at 10uM” value turn out when `CCC(C)[C@H](NC(=O)N1CCN(C)CC1)C(=O)OC` (some centres unmarked) was run?
A: 11.1%

Q: How did the “hERG current change (%, negative = inhibition) at 10uM” value turn out when `COc1ccc(CCNC(=O)CSc2nc3[nH]ncc3c(=O)n2-c2ccccc2Br)cc1OC` was run?
A: 39.6%

Q: With `Cc1cc(C(=O)Nc2nc3c(C)cccc3s2)c(C)o1` as the compound, how does the “hERG current change (%, negative = inhibition) at 10uM” value read?
A: 5.07%

Q: Which “hERG current change (%, negative = inhibition) at 10uM” value does the source give for `Cc1cc(C)c2c(N)c(C(=O)N/N=C/c3cccnc3)sc2n1` here?
A: 6.25%

Q: Which “hERG current change (%, negative = inhibition) at 10uM” value does the source give for `CC(C)n1c(O)c(N=NC(=O)C2COc3ccccc3O2)c2ccccc21` (centres unmarked) here?
A: 12.4%

Q: How did the “hERG current change (%, negative = inhibition) at 10uM” value turn out when `O=C(CCn1c(=S)[nH]c2ccccc2c1=O)NCC1CCCO1` (centres unmarked) was run?
A: -15%

Q: For `Nc1c(C(=O)c2ccccc2)sc2c1c(=O)[nH]c(=O)n2-c1ccccc1`, which “hERG current change (%, negative = inhibition) at 10uM” value is on record?
A: -28.9%

Q: How did the “hERG current change (%, negative = inhibition) at 10uM” value turn out when `CCN(CC)CCNC(=O)c1cn(CC)c2ccc(S(=O)(=O)N(C)C)cc2c1=O` was run?
A: 11.1%

Q: With `COc1ccc(/C=C(/NC(=O)c2ccccc2)C(=O)NCCCn2ccnc2)cc1OC` as the compound, how does the “hERG current change (%, negative = inhibition) at 10uM” value read?
A: 19%

Q: How did the “hERG current change (%, negative = inhibition) at 10uM” value turn out when `COC(CNC(=O)c1ccc(Cn2c(=S)[nH]c3cc4c(cc3c2=O)OCO4)cc1)OC` was run?
A: 6.72%

Q: With `O=C1/C(=C/c2cccnc2)SC(=S)N1Nc1ccccc1` as the compound, how does the “hERG current change (%, negative = inhibition) at 10uM” value read?
A: 6.02%

Q: With `OCCCNc1nc(-c2ccc(Cl)cc2)nnc1-c1ccccc1` as the compound, how does the “hERG current change (%, negative = inhibition) at 10uM” value read?
A: -40%

Q: `O=C1C(N2CCOCC2)=C(n2nnc3ccccc32)C(=O)c2ccccc21` was tested. Which “hERG current change (%, negative = inhibition) at 10uM” value did it give?
A: -11.9%

Q: How did the “hERG current change (%, negative = inhibition) at 10uM” value turn out when `Cc1ccc(-n2ncc(C#N)c2/N=C/N(C)C)cc1` was run?
A: 11.8%

Q: With `O=[N+]([O-])c1nn(-c2ccccc2)n(O)c1=NCCc1ccccc1` as the compound, how does the “hERG current change (%, negative = inhibition) at 10uM” value read?
A: -13.6%

Q: Which “hERG current change (%, negative = inhibition) at 10uM” value does the source give for `CN(CC1CCCO1)S(=O)(=O)c1ccc(C(=O)Nc2ccc(F)cc2)cc1` (centres unmarked) here?
A: 13%

Q: For `O=C1NC2(CCCCCC2)C(=O)N1Cc1cccc(Cl)c1`, which “hERG current change (%, negative = inhibition) at 10uM” value is on record?
A: -21.8%

Q: How did the “hERG current change (%, negative = inhibition) at 10uM” value turn out when `COc1ccc(-c2nn(-c3ccccc3)cc2/C=N/Nc2ccc(Cl)c(C(=O)O)c2)cc1OC` was run?
A: 9.19%

Q: With `CCOC(=O)N1CCN(/C=C(\C#N)c2nc3ccccc3s2)CC1` as the compound, how does the “hERG current change (%, negative = inhibition) at 10uM” value read?
A: -58.5%

Q: How did the “hERG current change (%, negative = inhibition) at 10uM” value turn out when `COC(=O)CCC(=O)OC1(C)C(=O)C2=CN(CC3CC3)C(c3ccc(OC)cc3)=CC2=C(Br)C1=O` (centres unmarked) was run?
A: 4.74%

Q: `COc1ccccc1CNC(=O)Cc1c[nH]c2ccccc12` was tested. Which “hERG current change (%, negative = inhibition) at 10uM” value did it give?
A: 15.3%

Q: With `CN(C)/C=N/S(=O)(=O)c1ccc(Cl)c(Cl)c1` as the compound, how does the “hERG current change (%, negative = inhibition) at 10uM” value read?
A: -33.8%

Q: Which “hERG current change (%, negative = inhibition) at 10uM” value does the source give for `CCCOC(=O)c1ccc(NC(=O)c2ccoc2C)cc1` here?
A: -1.85%

Q: How did the “hERG current change (%, negative = inhibition) at 10uM” value turn out when `O=C(COC(=O)Cc1ccccc1)Nc1ccc(Cl)cn1` was run?
A: 17.6%

Q: Which “hERG current change (%, negative = inhibition) at 10uM” value does the source give for `Oc1ccc(C[C@@H]2CNCCN2CCC23CC4CC(CC(C4)C2)C3)cc1` here?
A: -32.6%
